According to article PMC6919601, “Identification of Plasmodium dipeptidyl aminopeptidase allosteric inhibitors by high throughput screening” (PLoS ONE, 2019):
Hit rate of the full screen: of about 110,000 compounds, about 230 (0.21%) showed an effect of 50% or more. Some of the results follow.

The molecules below were run against DPAP1 (Plasmodium falciparum, UniProt Q8IIJ9) (assay: primary screen, percent inhibition; read by cleavage of a fluorogenic dipeptide substrate; higher = more effect of the substance).
Parameters: species or system P. falciparum D10 trophozoite lysates; single well
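Note: 30 min substrate incubation versus DMSO and 10 µM JCP410 controls.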

DPAP1, sequence (Q8IIJ9 whole entry, looked up): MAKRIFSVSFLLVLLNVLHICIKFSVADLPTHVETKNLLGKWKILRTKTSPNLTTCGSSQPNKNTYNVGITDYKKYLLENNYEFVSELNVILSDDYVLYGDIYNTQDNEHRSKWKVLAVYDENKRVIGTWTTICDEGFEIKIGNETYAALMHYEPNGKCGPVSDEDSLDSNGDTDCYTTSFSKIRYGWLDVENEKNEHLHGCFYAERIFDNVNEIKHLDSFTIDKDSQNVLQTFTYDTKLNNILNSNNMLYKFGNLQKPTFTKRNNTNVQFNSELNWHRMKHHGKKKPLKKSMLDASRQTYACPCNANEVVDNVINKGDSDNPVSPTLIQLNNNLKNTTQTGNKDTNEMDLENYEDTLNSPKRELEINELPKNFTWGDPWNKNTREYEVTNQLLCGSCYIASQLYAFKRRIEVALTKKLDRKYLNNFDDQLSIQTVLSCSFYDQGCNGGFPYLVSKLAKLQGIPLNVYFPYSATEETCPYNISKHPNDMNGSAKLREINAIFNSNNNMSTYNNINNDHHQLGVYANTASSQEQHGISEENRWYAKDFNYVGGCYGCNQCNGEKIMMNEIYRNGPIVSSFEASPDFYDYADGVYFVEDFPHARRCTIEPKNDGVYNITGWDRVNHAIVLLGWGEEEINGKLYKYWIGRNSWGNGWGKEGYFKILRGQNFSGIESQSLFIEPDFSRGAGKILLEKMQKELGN

In order of falling “% Inhibition @ 10 uM” value:
1. COCCN1C(=O)/C(=C/c2ccc(O)cc2)S/C1=N\c1ccccc1  12.6%
2. CC(=O)Nc1ccc(S(=O)(=O)N2CCN(c3ccc([N+](=O)[O-])cc3)CC2)cc1  11.1%
3. O=C(NCc1ccccc1)C1=Cc2sc3c(c2CS1)CCCC3  7.06%
4. O=C(NCCCc1nc2ccccc2n1Cc1ccccc1F)c1ccccc1  6.03%
5. CC1CC(Nc2ccccc2)c2ccccc2N1C(=O)c1ccc2c(c1)OCO2 (stereo not shown)  4.98%
6. CCOc1ccc2[nH]c(SCC(O)C(C)(C)C)nc2c1 (stereo not shown)  4.98%
7. CCc1c(C)c2ccc3c(c2oc1=O)CN(Cc1ccc(F)cc1)CO3  3.54%
8. O=C(/C=C/c1ccccc1)NC(=S)N1CCCCCC1  3.32%
9. Cc1cccc(CSCc2nnc(NC(=O)/C=C/c3ccccc3)s2)c1  3.25%
10. Cc1ccsc1CN1CCN(c2ccccc2Cl)CC1  3.1%
11. Cc1cccc(NC(=O)c2cccc(S(=O)(=O)Nc3cccc(C(=O)O)c3)c2)c1  3.05%
12. COc1cccc(C(=O)NCc2ccc(C)cc2)c1  2.33%
13. Cc1ccc(-c2cc(C(F)(F)F)n3ncc(C(=O)N(C)Cc4c(C)nn(C)c4C)c3n2)cc1  2.32%
14. Cc1cc(S(=O)(=O)N2CC=C(c3c(C)[nH]c4ccccc34)CC2)ccc1F  2.13%
15. Cc1nc2sc3c(c2c(=O)n1CC(=O)NCc1ccccc1)CCCC3  1.91%
16. O=C(Nc1nnc(-c2ccc(Cl)cc2Cl)s1)c1ccccc1F  1.67%
17. O=C(O)C(Cc1ccccc1)Nc1ncnc2ccccc12 (stereo not shown)  1.52%
18. O=C(c1ccc(CS(=O)c2cccc(Cl)c2)o1)N1CCN(Cc2ccccc2)CC1 (stereo not shown)  1.22%
19. Cc1ccc2cc3cc(C(=O)NCC4COc5ccccc5O4)sc3nc2c1 (stereo not shown)  1.22%
20. Cc1ccc([N+](=O)[O-])c2c3c([nH]c12)/C(=N/CCO)CCC3  0.989%
21. COC(=O)c1nnn(-c2nonc2N)c1CS(=O)(=O)Cc1ccccc1  0.883%
22. Cn1cc(C(CC(=O)c2ccccc2)C(=O)O)c2ccccc21 (stereo not shown)  0.313%
23. COc1ccc(CC(=O)NC2CCCC2)cc1  0.273%
24. CCCOc1ccc(C2NCCc3c2[nH]c2ccccc32)cc1OC (stereo not shown)  0.214%
25. Cn1c(=O)c2ncc(-c3ccccc3)nc2n(C)c1=O  0.0999%
26. Cc1nn(CCCC(=O)NCc2ccccc2Cl)c(=O)c2nccn12  0.0882%
27. CC(C)(C)C1CCc2c(sc(NC(=O)C3CCCO3)c2C(N)=O)C1 (stereo not shown)  -0.267%
28. O=C(Nc1c(O)c2ccccc2oc1=O)c1ccc2c(c1)OCO2  -0.426%
29. COc1ccc(Nc2nc(C)cc(C)c2C#N)cc1  -0.436%
30. CCC1CCC(N2CCN(C/C=C/c3ccccc3)CC2)CC1 (stereo not shown)  -0.446%
31. CCN(CC)C(=O)C1CCCN(C/C(C)=C/c2ccccc2)C1 (stereo not shown)  -0.446%
32. O=S(=O)(Nc1cccc2cccnc12)c1cccs1  -0.884%
33. Clc1ccccc1COc1ccc(CNCc2cccnc2)cc1  -0.992%
34. COc1ccc(C2=NS(=O)(=O)N(C)C(C(=O)NCc3ccccn3)=C2)cc1  -1.06%
35. COC(=O)c1c(NC(=O)c2ccc(OC)c(OC)c2)sc2c1CCCC2  -1.1%
36. COc1ccc(C2=NN(c3nc(C)cc(C)n3)C(=O)C2)cc1  -1.11%
37. CCCC(=O)Nc1ccc(S(=O)(=O)Nc2ccc(OC)cc2)cc1  -1.6%
38. COc1ccc(NC(=O)C2=C(C)NC(=O)NC2c2ccccc2F)c(OC)c1 (stereo not shown)  -1.95%
39. CCC1CCCCN1CCCNC(=O)C1=C(C)C(=O)OC12CCCCC2 (stereo not shown)  -2.11%
40. Cc1nn(CCCC(=O)NCCc2ccccc2)c(=O)c2nn(-c3ccccc3)c(C)c12  -2.31%
41. COc1ccc(Cn2ccc3nc(C)c(C(=O)NCc4ccc5c(c4)OCO5)cc3c2=O)cc1  -2.48%
42. COc1ccc(NC(=O)c2ccc(C)cc2)cc1OC  -2.78%
43. CC1CCN(C(=O)c2nn3c(c2Cl)NC(c2cccs2)CC3C(F)(F)F)CC1 (stereo not shown)  -2.87%
44. CCCc1[nH]nc2c1C(c1ccc(Cl)cc1)C(C#N)=C(N)O2 (stereo not shown)  -2.89%
45. CC1=C(C(=O)Nc2ccc(Br)cc2)C(c2ccc3c4c(cccc24)CC3)NC(=O)N1 (stereo not shown)  -2.91%
46. CCc1ccc(NC(=O)CSc2nc(N)cc(N)n2)cc1  -3.24%
47. Cc1[nH]c2ccccc2c1CCNC(=O)c1cccs1  -3.34%
48. CC1(c2ccccc2)CNC(=O)C1 (stereo not shown)  -3.4%
49. CCCCN(C)C(=O)/C(=C/c1cn(CC)c2ccccc12)NC(=O)c1ccccc1OC  -3.52%
50. COc1ccc(-n2c(SC)nc3c(c2=O)C2(CCCC2)Cc2ccccc2-3)cc1  -4.03%
51. CC(C)(C)c1cc(C(=O)CSc2nnnn2-c2ccccc2)cc(C(C)(C)C)c1O  -4.06%
52. CN(Cc1ccccc1)C(=O)c1ccc(Br)cc1  -4.35%
53. OC(COc1ccccc1)CN1CCN(Cc2ccccc2)CC1 (stereo not shown)  -4.5%
54. CC(C)COC(=O)NCCCOC(=O)Nc1ccccc1  -4.61%
55. CC1CCN(S(=O)(=O)c2ccc(NC(=O)COc3ccc(C(C)(C)C)cc3)cc2)CC1  -5.21%
56. Cc1ccc(C(=O)Nc2nnc(S(=O)(=O)NCc3ccccc3)s2)cc1  -5.37%
57. CCOC(=O)c1ccc(CNC(=O)c2c(N)no[n+]2[O-])o1  -5.53%
58. Cc1ccc(C(=O)Nc2nccc(C)n2)cc1  -5.92%
59. CCC1CCCCN1C(=O)CSc1ncccc1C(=O)O (stereo not shown)  -5.92%
60. CCC(=O)Nc1ccc2nn(-c3ccc(Cl)cc3)nc2c1  -6.25%
61. Nc1nonc1-c1nc2ccccc2n1CC(=O)Nc1ccccc1Cl  -6.38%
62. Cc1ccc(Cl)cc1NC(=O)CSc1nc2ccccc2n1C  -6.75%
63. Cc1nc2nc(NC(=O)COc3ccc(Cl)cc3)nn2c(O)c1Cc1ccccc1  -6.81%
64. COc1ccc(C2C(C(=O)c3ccccc3)=C(O)C(=O)N2CCCn2ccnc2)cc1 (stereo not shown)  -9.88%
